Results published in PubChem BioAssay AID1620 (Sanford-Burnham Center for Chemical Genomics, 2009).
For part of its entries the source gives two or more results. The other results are left out here.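 How the source made its calls: active means toxicity graded low, moderate or high, meaning less radioactive sulfur built into protein than in solvent-only controls; inactive means the rest.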 There may be further records. Results that share an entry are repeats across runs, samples, wells, individuals or studies. Marks in square brackets tell the records apart. A, B and so on number the origins entry by entry.

Tested on: HeLa, 35S-Met/Cys protein incorporation toxicity, 3 h
Assay: 35S-Met/Cys incorporation reduction in HeLa – HeLa cells, cytotoxicity control for PMI inhibitor project, late-stage follow-up (AID 1620)

In the case of `Cc1ccc(-n2sc3ccccc3c2=O)cc1`, the outcome is reported as “inactive; no toxicity [sample A] and active; low toxicity [sample B]”.
